18 sequences from paper PMC12820563 can be followed below.

The other results are listed elsewhere or left out. The list includes weakly bound sequences.

The assay deals with T1, MBP-FoxP3dN (UniProt Q99JB6).
T1 sequence: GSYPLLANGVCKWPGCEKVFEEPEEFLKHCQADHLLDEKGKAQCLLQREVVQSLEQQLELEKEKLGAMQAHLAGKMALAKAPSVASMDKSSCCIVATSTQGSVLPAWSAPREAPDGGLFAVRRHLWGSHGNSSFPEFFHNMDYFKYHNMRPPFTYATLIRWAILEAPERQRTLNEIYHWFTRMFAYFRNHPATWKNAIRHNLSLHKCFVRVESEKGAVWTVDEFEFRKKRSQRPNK
Put plainly: PD-seq (MBP pull-down with sequencing). Particulars: 20 mM Tris-HCl pH 7.5, 100 mM NaCl, 1.5 mM MgCl2, 0.4 uM protein, 0.1 uM dsDNA library, 30 min, room temperature, amylose pull-down; high values mean tight binding; double strand, one strand shown.
On to “GATGATTGTTCTCCCAGCTGATGAATTTGCAACATCGAGTAAACAAATTTTCCTAATCTTTCTGTTCAAGCGCCATCTAC”, for which the binding signal (RPM ratio (pull-down/input)) was determined as 5.28.
In the case of “GATGATTGTTCTCCCAGCTGATGAATTGAGCGCCTCGAGTAAACAAATTTTCCTAATCTTTCTGTTCAAGCGCCATCTAC”, the binding signal (RPM ratio (pull-down/input)) was found to be 1.18.
Under “GATGATTGTTCTCCCAGCTGATGAATTGATCCTATCGAGTAAACAAATTTTCCTAATCTTTCTGTTCAAGCGCCATCTAC” stands 0.403; under “GATGATTGTTCTCCCAGCTGATGAATTTGATATTTCGAGTAAACAAATTTTCCTAATCTTTCTGTTCAAGCGCCATCTAC”, 4.48; under “GATGATTGTTCTCCCAGCTGATGAATTCTCTTTATCGAGTAAACAAATTTTCCTAATCTTTCTGTTCAAGCGCCATCTAC”, 0.763.
“GATGATTGTTCTCCCAGCTGATGAATTGGGGGAATCGAGTAAACAAATTTTCCTAATCTTTCTGTTCAAGCGCCATCTAC”: the binding signal (RPM ratio (pull-down/input)) was found to be 0.299.
Consider “GATGATTGTTCTCCCAGCTGATGAATTCCCTCGTTCGAGTAAACAAATTTTCCTAATCTTTCTGTTCAAGCGCCATCTAC”, for which the binding signal (RPM ratio (pull-down/input)) came to 0.294.
As to “GATGATTGTTCTCCCAGCTGATGAATTCGCAAATTCGAGTAAACAAATTTTCCTAATCTTTCTGTTCAAGCGCCATCTAC”, the binding signal (RPM ratio (pull-down/input)) was determined as 0.359.
For “GATGATTGTTCTCCCAGCTGATGAATTTTGCTCATCGAGTAAACAAATTTTCCTAATCTTTCTGTTCAAGCGCCATCTAC” the value was 0.551; for “GATGATTGTTCTCCCAGCTGATGAATTCTAAAGGTCGAGTAAACAAATTTTCCTAATCTTTCTGTTCAAGCGCCATCTAC”, 0.2; for “GATGATTGTTCTCCCAGCTGATGAATTCCCTATGTCGAGTAAACAAATTTTCCTAATCTTTCTGTTCAAGCGCCATCTAC”, 0.282.
“GATGATTGTTCTCCCAGCTGATGAATTTAACCCGTCGAGTAAACAAATTTTCCTAATCTTTCTGTTCAAGCGCCATCTAC”: the binding signal (RPM ratio (pull-down/input)) came out at 0.274.
Regarding “GATGATTGTTCTCCCAGCTGATGAATTGTTTCCATCGAGTAAACAAATTTTCCTAATCTTTCTGTTCAAGCGCCATCTAC”, the binding signal (RPM ratio (pull-down/input)) was determined as 1.14.
Regarding “GATGATTGTTCTCCCAGCTGATGAATTATTCGCATCGAGTAAACAAATTTTCCTAATCTTTCTGTTCAAGCGCCATCTAC”, the binding signal (RPM ratio (pull-down/input)) stood at 1.12.
With “GATGATTGTTCTCCCAGCTGATGAATTCTTTGTTTCGAGTAAACAAATTTTCCTAATCTTTCTGTTCAAGCGCCATCTAC”, the binding signal (RPM ratio (pull-down/input)) was 0.575.
As for “GATGATTGTTCTCCCAGCTGATGAATTCGCAGCATCGAGTAAACAAATTTTCCTAATCTTTCTGTTCAAGCGCCATCTAC”, the binding signal (RPM ratio (pull-down/input)) was 1.05.
On to “GATGATTGTTCTCCCAGCTGATGAATTGAAACTTTCGAGTAAACAAATTTTCCTAATCTTTCTGTTCAAGCGCCATCTAC”, for which the binding signal (RPM ratio (pull-down/input)) amounted to 0.34.
Under “GATGATTGTTCTCCCAGCTGATGAATTACAGCTGTCGAGTAAACAAATTTTCCTAATCTTTCTGTTCAAGCGCCATCTAC” stands 0.442.
